# Assay results taken from article PMC4336329 (PLoS ONE, 2015).
# In all, about 310,000 compounds went through this assay and about 14,000 (4.5%) showed an effect of 50% or more. Effects have a minus sign here. This is one part of the list.
# Target: human ether-à-go-go-related gene (hERG) potassium channel (human, UniProt Q12809)
# Assay: primary screen, population patch clamp on CHO cells stably expressing hERG
# 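Note: peak tail current of the secondary pulse compared with the same well before compound.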
# human ether-à-go-go-related gene (hERG) potassium channel, sequence (Q12809 whole entry, looked up): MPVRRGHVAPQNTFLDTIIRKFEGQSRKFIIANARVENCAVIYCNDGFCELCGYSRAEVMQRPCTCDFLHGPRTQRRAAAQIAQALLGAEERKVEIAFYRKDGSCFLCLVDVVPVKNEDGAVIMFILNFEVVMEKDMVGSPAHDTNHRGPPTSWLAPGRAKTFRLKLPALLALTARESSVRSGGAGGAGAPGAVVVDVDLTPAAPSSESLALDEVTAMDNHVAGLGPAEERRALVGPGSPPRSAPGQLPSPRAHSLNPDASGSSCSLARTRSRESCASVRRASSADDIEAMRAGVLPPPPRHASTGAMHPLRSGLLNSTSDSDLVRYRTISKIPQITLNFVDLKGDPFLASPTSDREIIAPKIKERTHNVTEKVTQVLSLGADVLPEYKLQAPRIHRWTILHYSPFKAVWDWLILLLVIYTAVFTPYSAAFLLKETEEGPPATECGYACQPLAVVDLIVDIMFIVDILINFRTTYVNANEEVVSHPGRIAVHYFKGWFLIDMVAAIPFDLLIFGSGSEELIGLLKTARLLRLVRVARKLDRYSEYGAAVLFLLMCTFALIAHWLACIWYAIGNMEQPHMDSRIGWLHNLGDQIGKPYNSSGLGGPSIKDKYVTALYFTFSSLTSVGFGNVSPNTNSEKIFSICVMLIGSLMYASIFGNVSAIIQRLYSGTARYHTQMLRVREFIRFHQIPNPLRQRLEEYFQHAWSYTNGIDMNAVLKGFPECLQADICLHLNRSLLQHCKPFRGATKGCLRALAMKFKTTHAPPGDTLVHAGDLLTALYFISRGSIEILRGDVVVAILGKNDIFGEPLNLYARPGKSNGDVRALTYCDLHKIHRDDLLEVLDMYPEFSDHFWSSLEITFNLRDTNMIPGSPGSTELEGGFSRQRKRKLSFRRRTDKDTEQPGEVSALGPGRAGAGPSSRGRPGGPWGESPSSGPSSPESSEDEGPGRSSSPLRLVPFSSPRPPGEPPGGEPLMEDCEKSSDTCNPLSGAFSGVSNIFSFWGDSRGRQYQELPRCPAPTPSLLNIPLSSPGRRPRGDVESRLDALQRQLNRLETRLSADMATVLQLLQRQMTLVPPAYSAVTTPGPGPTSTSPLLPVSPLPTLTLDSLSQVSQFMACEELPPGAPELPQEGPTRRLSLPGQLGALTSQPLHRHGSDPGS
row,Structure (SMILES),"hERG current change (%, negative = inhibition) at 10uM [%]"
1,CCOn1c(=O)c(C)[n+]([O-])c2ccccc21,-10.1
2,O=C(O)CC1S/C(=N\N=C/c2ccccc2O)N(c2ccc(O)cc2)C1=O (stereo not drawn),9.18
3,COC(=O)CNc1n[nH]c(=S)[nH]c1=O,6.57
4,Clc1ccc2nc(C3CCN(Cc4ccccc4)CC3)[nH]c2c1,-73.4
5,N#Cc1c(N)n[nH]c1-c1cc2c([nH]1)CCCC2,-13.4
6,O=C(NC(=S)Nc1ccc(N2CCOCC2)cc1)c1cccc(Cl)c1,9.7
7,C=CCn1c(=O)/c(=C2/SC(C)=C(C)N2CC)s/c1=C1/C(=O)N(CC)C(=S)N1c1ccccc1,-4.43
8,COc1ccc(OC)c(CN2CCN(C(=O)c3cccc(S(=O)(=O)Nc4ccccc4OC)c3)CC2)c1,-38.2
9,Cc1cccc(-c2n[nH]c([N+](=O)[O-])n2)c1,9.56
10,COC(=O)c1ccc(C(=O)N2CCCC(Nc3ccc(F)c(F)c3)C2)cc1 (stereo not drawn),-16.4
11,COc1ccccc1NC(=O)COC(=O)c1oc2ccccc2c1C,22.5
12,Cc1cnc(-c2nnc(N(C)C(=O)C3CCCO3)s2)cn1 (stereo not drawn),2.91
13,Cc1cccc(NC(=S)N/N=C/c2ccc3c(c2)OCO3)c1,-2.58
14,COc1cccc(-c2nc(N3CCC(C)CC3)c3ccccc3n2)c1O,9.37
15,COc1ccc(N2CCN(c3nc4c(c(=O)n(C)c(=O)n4C)n3CCCc3ccccc3)CC2)cc1,13.4
16,c1ccc(Nc2nc(Nc3ccccc3)nc(N3CCNCC3)n2)cc1,-8.35
17,O=C(NCCc1ccccc1)C1CC(=O)N(C2CCCC2)C1 (stereo not drawn),16.1
18,O=C(CCN1C(=O)C2CC=CCC2C1=O)Nc1nc(-c2ccc(F)c(F)c2)cs1 (stereo not drawn),-37.6
19,COc1ccc(/C=N\N2CCN(Cc3ccccc3Cl)CC2)cc1.Cl,-62.4
20,CCOc1ccc(N(CCC#N)S(=O)(=O)c2ccc(OC)cc2)cc1,-33.3
21,CC(C)c1ccc(C2c3[nH]c4ccccc4c3C[C@H]3C(=O)N(c4ccccc4C(=O)N4CCC(C(=O)O)CC4)C(=O)N23)cc1 (stereo partly drawn),3.23
22,NC(=O)N/N=C/c1ccccc1OC(=O)c1cc2ccccc2oc1=O,12.5

row,Structure (SMILES),"hERG current change (%, negative = inhibition) at 10uM [%]"
1,Cc1cccc(N2CC(C(=O)OCC(=O)c3ccc(OC(=O)c4cccs4)cc3)CC2=O)c1C (stereo not drawn),0.31
2,Cc1ccc2cc(CN(C(=O)c3ccco3)c3ccccc3)c(=O)[nH]c2c1,13.8
3,CCN(C(=O)c1cccs1)c1nc(-c2ccc(OC)cc2)cs1,23.1
4,CC(=O)C1=C(O)CC(C)(C)CC1=NCc1nc2ccccc2[nH]1,8.14
5,O=c1c2cccc3c2c(nn1-c1ccccc1)-c1ccccc1-3,12.2
6,C/C(=N/NC(N)=S)c1ccc(Br)s1,16.8
7,O=C(CSc1ccc2nnc(-c3ccc(F)cc3)n2n1)NCc1ccco1,-21.7
8,Cc1ccc(OCC(=O)NCCCNC(=O)c2ccncc2)cc1C,-11.5
9,Nc1cccc(C(=O)NCCNC(=O)c2cccc(N)c2)c1,-19.7
10,CC(NC(=O)Cn1cccc1)c1ccccc1 (stereo not drawn),25.9
11,COc1cccc2c(Cl)c(CCCl)c(C)nc12,10.2
12,COC(=O)C1=CO[C@H](C)[C@H]2CN3CC[C@@]4(C(=O)Nc5ccccc54)[C@@H]3C[C@H]12,0.236
13,CC(=O)NCCC(=O)N1CCCC(N2CCN(c3cccc(Cl)c3)CC2)C1 (stereo not drawn),2.11
14,CC1(C)CC(=O)c2c(S(C)(=O)=O)sc(Br)c2C1,6.05
15,CC1=Nn2c(nc(-c3ccccc3)c2-c2ccccc2)N(CC(N)=O)C(=O)C1,1.9
16,FC(F)Oc1ccc(-c2c[n+]3c(n2-c2ccccc2)CCCCC3)cc1,-70.3
17,COc1ccc(N2CCN(C(=O)CCNS(=O)(=O)c3ccc4c(c3)CCC(=O)N4)CC2)cc1,-9.76
18,CCc1c(C(=O)N/N=C/c2ccc(C)o2)csc1C,-6.62
19,CC(=O)C1=C(O)C(=O)N(CCCCCC(=O)O)C1c1ccc(N(C)C)cc1 (stereo not drawn),21.4
20,O=C(c1ccc([N+](=O)[O-])cc1[N+](=O)[O-])N1CCCC1,5.62
21,O=S(=O)(CCOc1ccccc1)N1CCOCC1,15.7
22,COc1ccc(-c2csc3ncnc(N4CCN(S(=O)(=O)c5cccs5)CC4)c23)cc1,-8.27

row,Structure (SMILES),"hERG current change (%, negative = inhibition) at 10uM [%]"
1,O=C(Nc1nc(-c2ccccn2)cs1)C1CC1,17.3
2,Cc1cc(OCc2cc(C(=O)N3CCC(Oc4cccnc4)CC3)no2)cc(C)c1Cl,9.06
3,CC(CCc1ccccc1)NS(=O)(=O)c1ccccc1 (stereo not drawn),-8.87
4,Cc1ccc(S(=O)(=O)NC2(C(F)(F)F)NC(=O)N(Cc3ccccc3)C2=O)cc1 (stereo not drawn),9.44
5,Cc1cccc(NC(=O)Nc2ccc(S(N)(=O)=O)cc2)c1,13.4
6,CCc1ccc(-c2csc3ncn(CC(=O)NCc4ccco4)c(=O)c23)cc1,-4.39
7,CC(=O)c1ccccc1NC(=O)COC(=O)c1ccc2c(c1)nc(C)n2-c1ccccc1,13.1
8,N#CCSc1nc2cc(C(=O)N3CCC(C(N)=O)CC3)ccc2c2nc3ccccc3n12,-4.46
9,CN(Cc1ccco1)C(=O)Cn1ncc2c([nH]c3ccccc32)c1=O,-10.7
10,COc1ccc2[nH]c(=O)c(-c3nnn(-c4ccc(F)cc4)n3)cc2c1,-7.65
11,CCN(CC)c1ccc(/C=C/C(=O)c2ccc(Br)cc2)cc1,25.4
12,COc1ccc(OC)c(N/C(=N/c2nc(C)cc(C)n2)NC(C)=O)c1,14.5
13,COc1ccc(-c2cc(=O)oc3c(C)c(O)ccc23)cc1,19.6
14,CCC(=O)NC(c1cccs1)c1cc(Cl)c2cccnc2c1O (stereo not drawn),-2.87
15,CN(c1ccccc1)S(=O)(=O)c1ccc(C(=O)Nc2nnc(-c3ccc(F)cc3)o2)cc1,1.12
16,CSc1nc2nc3c(cc2c(=O)n1-c1ccc(C)cc1)COC(C)(C)C3,-7.7
17,O=C(C(Cc1ccc(Cl)cc1)NS(=O)(=O)c1ccccc1)N1CC[C@@]2(O)CCCC[C@H]2C1 (stereo partly drawn),-39.6
18,COc1ccc(CNC(=S)Nc2ccc(F)c(Cl)c2)cc1,19.4
19,Cc1cc(C)c(NC(=S)NC(=O)c2c(Cl)c(C)nn2C)c([N+](=O)[O-])c1,12.2
20,COc1cccc2c1Oc1ncccc1N(C(=O)CCC(=O)NCc1ccccc1)C2,-11.6
21,COC(=O)CSc1nnc(CNC(=O)c2ccccc2OC)n1-c1ccc(OC)cc1,-14.3
22,CCOc1ccc(NC(=O)c2ccccc2C(=O)c2ccccc2)cc1OCC,12.1

row,Structure (SMILES),"hERG current change (%, negative = inhibition) at 10uM [%]"
1,Cc1nn(CC(=O)Nc2ccc(C(C)C)cc2)c(C)c1[N+](=O)[O-],5.83
2,Cc1ccc(/C=C/C(=O)c2c(C)nc3ccccn23)cc1,-16
3,CC(NC(=O)C12CC3CC(C1)CC(n1cncn1)(C3)C2)C12CC3CC(CC(C3)C1)C2 (stereo not drawn),-61.9
4,COc1ccc(-c2cc(-c3ccccc3)c(C#N)c(=S)[nH]2)cc1,18.4
5,COc1ccc(C2NC(=O)NC(C)=C2[N+](=O)[O-])cc1 (stereo not drawn),-2.26
6,NC(=O)c1c(/N=C/c2cccnc2)sc2c1CCCC2,18.7
7,CC1(C)CC(=O)C(C=NCCCN2CCOCC2)=C(O)C1,10.1
8,O=C1NC(=O)/C(=C\c2ccc(OCc3ccccc3)cc2)S1,13.5
9,COc1ccc(/C=C2/SC(=O)N(CCC(=O)Nc3ccccc3)C2=O)cc1OC,6.79
10,Cl.O.O=c1c2ccccc2nc2n1CC/C2=C/N1CCN(c2cccc(C(F)(F)F)c2)CC1,-28
11,CNc1nc2ccccc2n1N,-3.79
12,COc1cccc(NC(=O)CCNC(=O)N2CC(=O)Nc3ccccc32)c1,18.9
13,COc1ccc(C(=O)N(C)Cc2nc3ccccc3c(=O)[nH]2)cc1S(=O)(=O)N1CCCC1,-13.2
14,[O-][Cl+3]([O-])([O-])[O-].c1ccc(-c2cc(-c3ccccc3)[n+](-c3ccccc3)c(-c3ccccc3)c2)cc1,-71.3
15,CCc1nnc(NC(=O)c2ccc(Cl)nc2)s1,9.78
16,CCn1c(SCC(N)=O)nc2cc(S(=O)(=O)N3CCOCC3)ccc21,-15.3
17,COC(=O)c1ccccc1-c1ccc(C=O)o1,25.3
18,Clc1cccc(-c2cc3nc4c(c(N5CCN(c6cnccn6)CC5)n3n2)CCCC4)c1,1.15
19,O=C(Nc1cccnc1)c1ccc(S(=O)(=O)c2ccc(Cl)cc2)cc1,-14
20,COc1ccc(-c2cc(N)n(CCC#N)n2)c(OC)c1,4.12
21,CSc1cccc(NC(=S)N(Cc2ccc(C)cc2)Cc2ccccn2)c1,-4.75
